In all, about 310,000 compounds went through this assay and about 14,000 (4.5%) showed an effect of 50% or more. The effect is printed as a negative number. The list shows a part of the results.
target: human ether-à-go-go-related gene (hERG) potassium channel (human, UniProt Q12809); test: primary screen, population patch clamp on CHO cells stably expressing hERG
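Note: peak tail current of the secondary pulse compared with the same well before compound.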

human ether-à-go-go-related gene (hERG) potassium channel, sequence (Q12809 whole entry, looked up): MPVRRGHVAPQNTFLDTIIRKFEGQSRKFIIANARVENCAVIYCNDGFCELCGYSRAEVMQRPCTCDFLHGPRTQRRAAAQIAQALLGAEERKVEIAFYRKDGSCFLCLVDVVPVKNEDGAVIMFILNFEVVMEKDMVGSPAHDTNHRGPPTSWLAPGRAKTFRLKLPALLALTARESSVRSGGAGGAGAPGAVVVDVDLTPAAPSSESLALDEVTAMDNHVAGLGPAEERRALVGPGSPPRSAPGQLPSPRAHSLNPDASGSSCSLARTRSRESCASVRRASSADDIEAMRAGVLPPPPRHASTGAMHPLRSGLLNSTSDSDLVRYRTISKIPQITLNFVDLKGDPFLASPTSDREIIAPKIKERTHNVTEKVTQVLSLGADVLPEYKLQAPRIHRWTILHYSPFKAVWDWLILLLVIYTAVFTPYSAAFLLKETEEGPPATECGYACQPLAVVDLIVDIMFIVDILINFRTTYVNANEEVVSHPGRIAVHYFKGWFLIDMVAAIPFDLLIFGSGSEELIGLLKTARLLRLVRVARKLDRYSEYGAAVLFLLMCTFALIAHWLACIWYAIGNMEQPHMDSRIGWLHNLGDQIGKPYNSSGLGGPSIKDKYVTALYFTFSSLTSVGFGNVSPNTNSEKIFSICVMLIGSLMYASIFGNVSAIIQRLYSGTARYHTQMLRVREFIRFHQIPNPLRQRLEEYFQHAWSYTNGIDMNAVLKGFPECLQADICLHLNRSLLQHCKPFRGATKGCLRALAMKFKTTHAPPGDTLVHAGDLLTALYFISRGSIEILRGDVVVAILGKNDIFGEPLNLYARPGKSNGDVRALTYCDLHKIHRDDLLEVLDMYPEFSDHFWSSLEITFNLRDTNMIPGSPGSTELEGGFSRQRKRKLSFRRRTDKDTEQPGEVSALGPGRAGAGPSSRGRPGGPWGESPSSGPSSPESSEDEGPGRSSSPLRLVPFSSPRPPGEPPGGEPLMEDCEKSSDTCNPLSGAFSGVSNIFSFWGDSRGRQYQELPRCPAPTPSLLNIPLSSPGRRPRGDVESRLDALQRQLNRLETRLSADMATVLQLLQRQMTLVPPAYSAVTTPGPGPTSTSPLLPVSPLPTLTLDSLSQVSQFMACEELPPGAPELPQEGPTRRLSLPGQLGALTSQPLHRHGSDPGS

Row | Compound | hERG current change (%, negative = inhibition) at 10uM
1 | O=C1CC(c2ccccc2)=Nc2ccccc2N1Cc1ccccc1 | -2.85%
2 | Cc1cc(NC(=O)c2ccccc2C)ccc1NC(=O)c1ccccc1Cl | -17.4%
3 | CSc1ccccc1N=Cc1nc(-c2ccccc2)oc1O | 8.89%
4 | COCCn1c(SCC(=O)Nc2ccc(OC)c(S(N)(=O)=O)c2)nc2ccccc2c1=O | 8.06%
5 | Cc1cc(C)c(N2CCN(S(=O)(=O)N3CCCCCC3)CC2)c(C)c1 | 0.083%
6 | CC(C)CNc1oc(-c2ccccc2Cl)nc1C#N | -10.5%
7 | COc1ccc(C(=O)Nc2cc(Cl)ccc2Cl)c(OC)n1 | -5.79%
8 | Nc1c(-c2ccccc2)c(CSc2nc3ccccc3[nH]2)nn1-c1cccc(C(=O)O)c1 | 21%
9 | O=C(Nc1ccccc1N1CCCCC1)c1ccc(OC(F)F)cc1 | -44.8%
10 | COc1cc2c(cc1OC)C(c1ccccc1N)=NCC2 | 7.88%
11 | Cc1cc(OCC(=O)N(Cc2ccco2)C2CCS(=O)(=O)C2)ccc1Cl (stereo not drawn) | -38.5%
12 | CCn1c(S(=O)(=O)O)nc2ccccc21 | 5.13%
13 | CCCCOC(=O)c1ccc(NC(=O)c2c(Cl)ccc(Cl)c2OC)cc1 | 25.7%
14 | Cc1ccc(NC(=O)CC2S/C(=N/N=C/c3c[nH]c4ccccc34)NC2=O)cc1 (stereo not drawn) | -1.01%
15 | C=CCN1C(=O)C(CC(=O)Nc2ccc(OCC)cc2)N(Cc2ccccn2)C1=S (stereo not drawn) | -47%
16 | O=C(c1ccc(CNc2c(N3CCOCC3)c(=O)c2=O)cc1)N1CC=C(c2ccccc2)CC1 | -5.86%
17 | CC1CCC(N2CCN(c3ncccn3)CC2)CC1 (stereo not drawn) | -1.23%
18 | CC(C)(C)C(=O)Nc1cc(NC(=O)C(C)(C)C)cc(C(=O)Nc2cc(C(=O)O)cc(C(=O)O)c2)c1 | 0.898%
19 | COc1cc(OC)cc(C(=O)N[C@H](C(=O)NC23CC4CC(CC(C4)C2)C3)C(C)C)c1 | 11.8%
20 | Cc1ccc(-c2csc3ncnc(SCC(N)=O)c23)cc1 | 4.19%
21 | CC(C)C(=O)OCC(=O)Nc1ccc(N=Nc2ccccc2)cc1 | 4.2%
22 | Cc1ccc(S(=O)(=O)N2CC3CCC2C3)cc1 (stereo not drawn) | 9.74%
23 | Cc1ccc2c(c1)N(Cc1cccc(F)c1)C(=O)C(C)O2 (stereo not drawn) | -3.11%
24 | CCC(C)N(C(=O)COC(=O)c1cc([N+](=O)[O-])ccc1N1CCOCC1)C1CCS(=O)(=O)C1 (stereo not drawn) | -7.74%
